PubChem BioAssay AID360 (National Center for Advancing Translational Sciences (NCATS), 2006)
The whole screen tested about 48,000 compounds, of which about 550 (1.1%) were called active. Inconclusive results (about 4%) are left out. Rule as the data show it: active = potency below about 15 µM; inconclusive = mostly about 16 µM to 33 µM; inactive = weaker than that. The list shows a part of the results.

Molecular target: Lysosomal acid glucosylceramidase (Homo sapiens) (UniProt P04062)
Experiment: Glucocerebrosidase;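 also: the screen sought inhibitors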
Settings: purified enzyme, resorufin glucoside fluorescence (screen aimed at inhibitors), 20 min
Outline: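 Wild-type enzyme at 0.2 nM final in 50mM citric acid/KH2PO4, 10mM sodium taurocholate, 0.01% tween-20, pH 5.9, with resorufin beta-D-glucopyranoside at 30 uM final. Compounds titrated, 20 min at RT, red fluorescence read; AC50 from titration.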
Potency is read from the fitted curve at half-maximal effect.

UniProt P04062, sequence (P04062 whole entry, looked up): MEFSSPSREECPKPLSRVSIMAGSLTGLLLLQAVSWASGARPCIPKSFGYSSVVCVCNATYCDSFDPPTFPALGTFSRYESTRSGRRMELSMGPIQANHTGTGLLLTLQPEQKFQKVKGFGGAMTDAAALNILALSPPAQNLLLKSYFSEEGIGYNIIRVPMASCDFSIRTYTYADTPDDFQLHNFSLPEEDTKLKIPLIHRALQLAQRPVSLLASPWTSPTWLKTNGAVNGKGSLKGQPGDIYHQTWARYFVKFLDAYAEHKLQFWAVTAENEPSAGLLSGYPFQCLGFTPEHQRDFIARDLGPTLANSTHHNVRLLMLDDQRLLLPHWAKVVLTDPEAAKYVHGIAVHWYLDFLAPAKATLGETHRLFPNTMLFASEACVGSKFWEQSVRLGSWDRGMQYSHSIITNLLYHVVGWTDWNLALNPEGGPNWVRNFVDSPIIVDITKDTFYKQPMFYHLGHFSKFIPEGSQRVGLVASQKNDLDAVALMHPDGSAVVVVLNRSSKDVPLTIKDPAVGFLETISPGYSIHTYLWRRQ

Potency, inactive:
Cc1ccc(-c2csc3ncnc(-n4nc(C)cc4N)c23)cc1 > 76.9 µM
CN(C)/C=C/c1c(C#N)c(=O)ncn1Cc1ccccc1 > 76.9 µM
COc1ccc(OC)c(C(=O)CN2C(=O)NC(C)(c3ccccc3)C2=O)c1 (stereo not drawn) > 76.9 µM
N#CNC1=NCN(Cc2ccccc2)CN1 > 76.9 µM
CN1CCC2(CC1)NC(=O)NC2=O > 76.9 µM
COc1ccc2c(Cl)c(-c3nnco3)sc2c1 > 76.9 µM
CCOC(=O)c1cc2sccc2n1CC(=O)N1CCCc2ccccc21 > 76.9 µM
Cc1nc(N2CCCC2)c2nnn(Cc3ccccc3Cl)c2n1 > 76.9 µM
O/N=C1/CCCCC1c1ccccn1 (stereo not drawn) > 76.9 µM
CCn1ccc(C(=O)Oc2ccc(C(C)C)cc2)n1 > 76.9 µM
CC(=O)c1c(C)[nH]c(C(=O)CSc2nnc(CN3CCCCCC3=O)n2-c2ccccn2)c1C > 76.9 µM
O=S(=O)(NC1CC2CCC1C2)c1ccc(Br)s1 (stereo not drawn)
O=C(Oc1nsnc1N1CCOCC1)N1CCOCC1 > 76.9 µM
CC(C)(C)C(=O)C(Oc1cccc2nonc12)n1cncn1 (stereo not drawn) > 76.9 µM
C=CCSc1nnc(NC(=O)CSc2ccccn2)s1 > 76.9 µM
CN(C)C(CNC(=O)C1CCCN(C(=O)c2ccc(Cl)cc2)C1)c1ccco1 (stereo not drawn) > 76.9 µM
COc1ccc(N2CCN(CC(=O)Nc3c(C)cc(C)cc3C)CC2)cc1 > 76.9 µM
C=CCOc1ccc(/C(O)=C2/C(=O)C(=O)N(CCN3CCOCC3)C2c2ccc(C)cc2)cc1 (stereo not drawn) > 76.9 µM
COc1c(F)c(F)c(C(=O)Nc2cccc(Cl)c2N2CCOCC2)c(F)c1F > 76.9 µM
CCc1nc(OCc2ccco2)c2sc3nc4c(cc3c2n1)COC(C)(C)C4 > 76.9 µM
CCNC(=O)C1CCN(S(=O)(=O)c2ccc(F)cc2)CC1 > 76.9 µM
CC(C(=O)OCc1nnc(-c2ccccc2)o1)N1C(=O)c2ccccc2C1=O (stereo not drawn) > 76.9 µM
CC(=O)Nc1cccc(NC(=O)c2sc3ncn(CC(=O)N4CCCCC4)c(=O)c3c2C)c1
CCc1nnc(NC(=O)CSc2nnc(-c3ccco3)n2CC)s1 > 76.9 µM
Cc1nnc(SCCC(=O)Nc2nc(-c3ccccc3)ns2)s1 > 76.9 µM
Nc1nc(SCC(=O)NCc2ccccc2)n[nH]1 > 76.9 µM
Cn1c(SCc2ccccc2)nnc1-c1ccc2c(c1)OCO2 > 76.9 µM
Cc1ccc(S(=O)(=O)N2C(=O)CCC2C(=O)N2CCN(C)CC2)cc1 (stereo not drawn) > 76.9 µM
COc1cccc(CNc2ccc(N3CCCCC3)cc2)c1OC > 76.9 µM
O=P(C1=C(N2CCOCC2)/C(=C\c2ccccc2)CC1)(N1CCOCC1)N1CCOCC1 > 76.9 µM
Cc1cccc(N2CCN(C(=O)c3ccncc3)CC2)c1C > 76.9 µM
CCCOc1cccc(C(=O)N(Cc2cccs2)C2CCS(=O)(=O)C2)c1 (stereo not drawn) > 76.9 µM
O=C(CSc1nc2ccccc2o1)N1CCN(c2ccccc2)CC1 > 76.9 µM
COc1ccccc1-c1cc(C(F)(F)F)nc(N2CCN(c3ccc(F)cc3)CC2)n1 > 76.9 µM
CCN(CC)S(=O)(=O)c1ccc(Nc2nc3ccccc3n3nnnc23)cc1 > 76.9 µM
COc1ccc(-c2nnc3sc(-c4ccc(Br)o4)nn23)cc1OC > 76.9 µM
CCNc1nc(NC(C)(C)C)nc(N(CC)n2cnnc2)n1 > 76.9 µM
CCc1cc(C(=O)OC)c(NC(=O)CC2NCCNC2=O)s1 (stereo not drawn) > 76.9 µM
CNC(=O)c1ccccc1-c1ccccc1 > 76.9 µM
COc1ccc(-c2cn3cccnc3n2)cc1NC(=O)CC(C)C > 76.9 µM
Cc1ccc(OCc2ccoc2C(=O)O)cc1C > 76.9 µM
Cc1cc(C(=O)Cn2nnc(-c3ccc(Cl)cc3)n2)c(C)n1CC1CCCO1 (stereo not drawn) > 76.9 µM
CSc1cccc(NC(=O)C2CCN(S(C)(=O)=O)CC2)c1 > 76.9 µM
COc1ccccc1Cn1c(=O)c2ccccc2n2c(SCc3csc(C)n3)nnc12 > 76.9 µM
CCN(CC)C(=O)CN(C#N)c1nc(OC)nc(N(C)C)n1 > 76.9 µM
CN(C)CCCN1C(=O)C(=O)/C(=C(/O)c2ccc3c(c2)OCCO3)C1c1ccccn1 (stereo not drawn) > 76.9 µM
CCOc1ccc(N(Cc2cc3cc(OC)ccc3[nH]c2=O)C(=O)C2CCCO2)cc1 (stereo not drawn) > 76.9 µM
CC(C)C(NC(=O)C1CCCCC1)C(=O)N1CCN(c2ccc(F)cc2)CC1 (stereo not drawn) > 76.9 µM
Cn1c(=O)n(C)c2cc(CNc3ccc(N4CCOCC4)c(C(=O)O)c3)ccc21 > 76.9 µM
CCOC(=O)C1CN(c2cc3c(cc2F)c(=O)c(C(=O)O)cn3CC)OC1C(=O)OCC (stereo not drawn) > 76.9 µM
Cc1ccc(S(=O)(=O)NC(C)C(=O)NC2CCCCCC2)cc1 (stereo not drawn) > 76.9 µM
CCC(C)n1[nH]c(=O)cc1N (stereo not drawn) > 76.9 µM
CCC(C)Nc1nc(SC(C(C)=O)C(C)=O)nc(N(C)C)n1 (stereo not drawn) > 76.9 µM
COc1ccc2[nH]c(=O)c(CN(Cc3ccco3)Cc3nnnn3Cc3ccccc3)cc2c1 > 76.9 µM
COc1ccc(OC)c(C2=Nn3c(nnc3-c3cc(OC)c(OC)c(OC)c3)SC2)c1 > 76.9 µM
O=C(O)c1oc2ccccc2c1CN1CCN(c2ccccc2)CC1 > 76.9 µM
N#CC1=C(N)Oc2n[nH]c(-c3cccs3)c2C1c1cccs1 (stereo not drawn) > 76.9 µM
CCOC(=O)C1CCCN(S(=O)(=O)c2cc(Br)cc3c2N(C(=O)C2CC2)CC3)C1 (stereo not drawn) > 76.9 µM
